In PubChem BioAssay AID938 (National Center for Advancing Translational Sciences (NCATS), 2007):
The whole screen tested about 73,000 compounds, of which about 1,800 (2.5%) were called active. Roughly 13% stayed inconclusive and do not appear here. Calls come from the whole dose curve; as a rule, active = well fitted activation curve with a large enough effect; inconclusive = small, poorly fitted or top-dose-only effect; inactive = no such curve, though single readings can be large or run the other way. Only a part is listed here, and it is no random draw.

Experiment: qHTS Assay for Agonists of the Thyroid Stimulating Hormone Receptor: Activators of Intracellular cAMP Concentrations in Parental HEK 293; note: nearly all actives have a fitted effect of over 55% in size; for activation: % of control where 0% means no effect
Conditions: parental HEK293 CNG cAMP sensor, membrane potential fluorescence; series mostly up to 57.1 µM; activation: at the top concentration
Procedure, shortened: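 Counterscreen for endogenous-receptor signalling: CNG-channel HEK 293 cells report cAMP rise by membrane depolarization. After 60 min dye equilibration with 100 uM RO 20-1724, compounds incubated 30 min before bottom-read fluorescence at 590 nm.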
Potency is the fitted concentration of half-maximal effect.

Row | Structure (SMILES) | activation | Potency
1 | CCN1CCCC1CNC(=O)c1cc(S(=O)(=O)CC)c(N)cc1OC (stereo not given) | inactive: -56.7% | –
2 | CCC(=O)Nc1ccc(Cl)c(NC(=O)c2cccnc2)c1 | inactive: -58.1% | –
3 | COc1ccc(-n2c(=O)c(C)nc3cnc(Oc4cccc(Cl)c4)nc32)cc1 | – | active: 15.8 µM
4 | CCCN(CCC)Cc1c(C(=O)OCC)nnn1-c1nonc1N | inactive: 36.5% | –
5 | CC(C)[C@H](CO)Nc1nc(Nc2cc(N)cc(Cl)c2)c2ncn(C(C)C)c2n1 | inactive: -33.1% | –
6 | O=C1c2ccccc2-c2n[nH]c3cccc1c23 | inactive: -6.67% | –
7 | CC1(C)CC(=O)C=C(NC2CCS(=O)(=O)C2)C1 (stereo not given) | inactive: 7.71% | –
8 | Cc1cc(NCc2ccco2)n2c(nc3ccccc32)c1C#N | inactive: -43.6% | –
9 | C=COCC1CN2C(CCC(C)C2c2ccc(Br)cc2)C(=O)O1 (stereo not given) | inactive: 20.1% [at 11.4 µM] | –
10 | CCCC/C=C/C(NC(=O)Oc1cccc(C(F)(F)F)c1)c1ccccc1 (stereo not given) | – | active: 25.1 µM
11 | CN1C(=O)CS(=O)c2ccc(C(=O)NCCC3=CCCCC3)cc21 (stereo not given) | inactive: 2.16% | –
12 | Cc1ccc2ccccc2c1[N+](=O)[O-] | inactive: -55.7% | –
13 | O=C1c2ccccc2C(=O)N1CCCc1nc(-c2ccc(Cl)cc2)no1 | – | active: 0.158 µM
14 | CN(C)S(=O)(=O)c1ccc(Nc2ccc(O)c3c2C(=O)c2c([N+](=O)[O-])ccc(O)c2C3=O)cc1 | inactive: -46.5% [at 11.4 µM] | –
15 | NCCC[C@@H](CC(=O)N[C@@H]1CCCC[C@H]1C(=O)N[C@H](CC(=O)N[C@@H](CCC(=O)O)CC(=O)O)Cc1ccccc1)NC(=O)C[C@H](Cc1ccccc1)NC(=O)[C@@H]1CCCC[C@H]1N | – | active: 0.0316 µM
16 | Cc1cccc(OCCCCCn2ccnc2)c1C | – | active: 31.6 µM
17 | Cc1cccc(NC(=O)c2sc3nc(-c4ccccc4)cn3c2C)n1 | – | active: 25.1 µM
18 | COCCn1c(=N)c(C(=O)NCCc2ccc(OC)cc2)cc2c(=O)n3cccc(C)c3nc21 | inactive: -55.7% | –
19 | COc1ccc(CCn2c(C)cc(C(=O)CSc3nnc(N)s3)c2C)cc1 | – | active: 25.1 µM
20 | CCN1CCC[C@H]1CNC(=O)c1cc(S(N)(=O)=O)ccc1OC | inactive: 1.88% | –
21 | Nc1ccc(S(N)(=O)=O)cc1 | – | inactive
22 | CN(C)CCC(c1ccccc1)c1ccccn1 (stereo not given) | inactive: -3.49% | –
23 | FC(F)(F)c1cc(CO[C@@H]2CCCN[C@H]2c2ccccc2)cc(C(F)(F)F)c1 | inactive: 21.7% | –
24 | CC(Cc1ccccc1)C(=O)NCCO (stereo not given) | inactive: 37.5% | –
25 | Cn1c(SCC(=O)NC2CCCC2)nnc1-c1ccc(S(=O)(=O)N2CCOCC2)cc1 | – | active: 25.1 µM

Row | Structure (SMILES) | activation | Potency
26 | O=C(CN1C(=O)COc2ccccc21)N(Cc1cccnc1)Cc1cccc(F)c1 | – | active: 15.8 µM
27 | CCS(=O)(=O)n1nc(NCc2cccc(OC)c2)nc1NCc1cccc(OC)c1 | inactive: 15.1% | –
28 | CCOC(=O)COc1ccc(S(=O)(=O)NCc2ccncc2)cc1 | inactive: 14.9% | –
29 | c1ccc2n[nH]nc2c1 | inactive: 3.91% | –
30 | C=C(C)C1CC=C(C)C(OC(C)=O)C1 (stereo not given) | inactive: -8.26% | –
31 | COc1cccc(/C=N/n2c(C)nc3ccccc32)c1OC | – | active: 15.8 µM
32 | Cc1noc(C)c1-c1nc(NCc2ccccc2)c2ccccc2n1 | – | active: 25.1 µM
33 | O=C(CSCCO)Nc1cccc2ccccc12 | inactive: -46.7% | –
34 | COc1cc2cc3c4c(cc(OC)c(OC)c4c2cc1OC)CCN3C | inactive: -63% | –
35 | O=C(c1cc2c(s1)CCCC2)N1CCN(Cc2ccc3c(c2)OCO3)CC1 | inactive: -46.5% | –
36 | Cc1ccc2nc3c(c(N)c2c1)CCN3c1ccccc1 | inactive: -62.8% | –
37 | CN(C)/C=N/c1c(C#N)cnn1-c1ncnc2sc(-c3ccccc3)cc12 | inactive: 3.84% | –
38 | CCN1CCN(c2c(Cl)cccc2NC(=O)c2ccc(Br)o2)CC1 | inactive: -36.4% | –
39 | O=C(OCc1c(Cl)nc2sccn12)c1cc2c(s1)CCCC2 | – | active: 12.6 µM
40 | C[C@@H](NC(=O)/C(C#N)=C/c1ccc(O)c(O)c1)c1ccccc1 | inactive: 11.2% | –
41 | COc1ccc(OCC2CN3C(CCC(C)C3c3ccc(Br)cc3)C(=O)O2)cc1 (stereo not given) | inactive: 6.21% [at 11.4 µM] | –
42 | CN1CCCCc2c1nc1ccccc1c2N (tested in a mixture with another compound) | inactive: -34% | –
43 | CCCCCCc1ccc(O)cc1O | inactive: -13.2% | –
44 | Cc1ccc(CC(NC(=O)c2ccccc2)C(=O)N2CCCC2C(=O)O)cc1 (stereo not given) | inactive: -40.5% | –
45 | COc1ccccc1O | – | inactive
46 | COC(=O)c1ccc(C(NC(=O)OCc2ccccc2)/C(=C/[C@@H](C)C(=O)NCCF)c2cccnc2)cc1 (stereo not given in full) | inactive: 7.91% | –
47 | CCCCN(CC)Cc1c(C)[nH]c2ccccc2c1=O | inactive: -49.6% | –
48 | Cn1c(C(C#N)C2=C(Cl)C(=O)N(c3ccccc3)C2=O)nc2ccccc21 (stereo not given) | inactive: -54.4% | –
49 | COc1cc(NC(=O)c2ccco2)c(OC)cc1NC(=O)Nc1cccc(Cl)c1 | inactive: -34.8% | –
50 | N#Cc1c2c(c(N3CCN(CCO)CC3)n3c1nc1ccccc13)CCCC2 | inactive: -32% | –
